# Source: the antibiotic and cytotoxicity screens of Wong et al. (2023)
# The other results are listed elsewhere or left out.
# How the values were obtained:
# HSkMC = human skeletal muscle cells; assay: cytotoxicity call (relative viability < 0.9); conditions: 10 µM
# S. aureus RN4220 = assay: growth inhibition call (relative growth <= 0.2); conditions: 50 µM
Structure (SMILES),cytotoxicity call (HSkMC),growth inhibition call (S. aureus RN4220)
O=C([C@H]1CCCO1)N1CCCN2CCC[C@H]2C1,inactive,inactive
CNC(=O)[C@H]1C[C@H]2CN(CC3CC3)C[C@H]1O2,inactive,inactive
O=C(NCc1ccccc1)[C@H]1C[C@H]2CNC[C@H]1O2,inactive,inactive
C[N+](C)(C)CCCCCCCCCC[N+](C)(C)C.[Br-].[Br-],inactive,inactive
CS(=O)(=O)c1ccc(C(=O)C2C(=O)CCCC2=O)c([N+](=O)[O-])c1,inactive,inactive
CN1C[C@@H](C(=O)O)CN2CCN(C(=O)c3ccncc3F)C[C@@H]2C1,inactive,inactive
N#CCCN1CCCC2(CCCC2)C1,inactive,inactive
CCC(CO)NC(=O)C1C=C2c3cccc4c3c(cn4C)CC2N(C)C1.O=C(O)C=CC(=O)O (centres undefined),inactive,inactive
Nc1ccc([As](=O)(O)O)cc1,inactive,inactive
CCN(CC)C1CCCCC1,inactive,inactive
CN(C)C(=O)Oc1cccc([N+](C)(C)C)c1.COS(=O)(=O)[O-],inactive,inactive
CC(C)(C)[C@]1(O)C[C@@H]2OC(=O)C[C@@]23C(=O)O[C@@H]2OC(=O)[C@H](O)[C@]213,inactive,inactive
Oc1ccccc1-c1ccccc1O,inactive,inactive
N#Cc1cccnc1N1CCNCC1,inactive,inactive
CC[C@@H](C)NC=C1C(=O)NC(=O)NC1=O,inactive,inactive
CN1C[C@@H]2c3nc(N(C)C)ncc3CS(=O)(=O)[C@H]2C1,inactive,inactive

Structure (SMILES),cytotoxicity call (HSkMC),growth inhibition call (S. aureus RN4220)
O=C(OC1CC2CCC(C1)[N+]21CCCC1)C(O)(c1ccccc1)c1ccccc1.[Cl-] (centres undefined),inactive,inactive
O=C1CCO1,inactive,inactive
c1nc(N2CCN3CCC[C@H]3C2)c2[nH]cnc2n1,inactive,inactive
N[C@@]1(C(=O)O)CC[C@H](C(=O)O)C1.N[C@]1(C(=O)O)CC[C@@H](C(=O)O)C1,inactive,inactive
Cc1ccc(C[C@H]2CCCN2)cc1C,inactive,inactive
O=C1NC(=O)C(=C[C@@H]2CC=CCC2)C(=O)N1,inactive,inactive
COC(N)=O,inactive,inactive
Cc1c(N)nc([C@H](CC(N)=O)NC[C@@H](N)C(N)=O)nc1C(=O)N[C@H](C(=O)N[C@@H](C)[C@H](O)[C@@H](C)C(=O)N[C@@H](C(=O)NCCc1nc(-c2nc(C(=O)NCCC[S+](C)C)cs2)cs1)[C@@H](C)O)[C@@H](O[C@H]1O[C@H](CO)[C@H](O)[C@@H](O)[C@H]1O[C@H]1O[C@H](CO)[C@@H](O)[C@H](OC(N)=O)[C@@H]1O)c1cnc[nH]1,inactive,inactive
Cc1cc2c(C(C)C)c(O)c(O)c(C=O)c2c(O)c1-c1c(C)cc2c(C(C)C)c(O)c(O)c(C=O)c2c1O,inactive,inactive
CC=C(C)C(=O)OC1CCC2(C)C3CCC4C5(O)CC(O)C6(O)C(CN7CC(C)CCC7C6(C)O)C5(O)CC42OC13O.Cl (centres undefined),inactive,inactive
O=C1NC(=S)NC(=O)C1CN1CCOCC1,inactive,inactive
Cl.O=C1CCC2(O)C3Cc4ccc(O)c5c4C2(CCN3CC2CC2)C1O5 (centres undefined),inactive,inactive
CCn1cc(C(=O)[O-])c(=O)c2cc3c(cc21)OCO3.[K+],inactive,inactive
Oc1ccccc1-c1ccccc1,inactive,inactive
COc1ccc(OC(=O)N(C)C[C@H]2OCc3ccccc3-c3c(n(C)c4ccccc34)C(=O)N([C@H](C)CO)C[C@H]2C)cc1,inactive,inactive
OC1(c2cccnc2)CCNCC1,inactive,inactive
